Test results taken from the RNAGym collection of RNA variant scans (doi:10.1093/nar/gkz1192).
The source gives no read counts; variants with many changes may rest on few reads.

B1: CPEB3 Ribozyme (parent)
chain: UAACAGGGGGCCACAGCAGAAGCGUUCACGUCGCAGCCCCUGUCAGAUUCUGGUGAAUCUGCGAAUUCUGCUGUAUAUCUC

Variants of: B1
Experiment: self-cleavage, relative activity (ratio to wild type); higher = more cleavage; in vitro, sequencing
In short: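 After error-prone PCR and barcoding, CPEB3 ribozyme mutant libraries were transcribed with T7 RNA polymerase at 37°C for 5 hours, then given 15 min with DNase I before an EDTA stop, and they cleaved during both steps. Reverse transcription with template switching preceded Illumina sequencing. Relative activity divides a variant's cleaved/total read fraction by the unmutated ribozyme's. At least 5 reads were required per variant, and three batches were averaged.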

Variant	self-cleavage
A3G U26G A57G U60A U67C	0.11
A3G U31A C32A U80C	0.18
A3G U31A U41A	0.39
A3G U31A U41G	0.53
A3G U31A U49A	0.56
A3G U31C A35G U41A A45G	0.37
A3G U31C A56G	0.69
A3G U31C A64G	0.56
A3G U31C G55U A64G U78C	0.36
A3G U31C U41A	0.32
A3G U31C U43C	0.21
A3G U31C U51A A57G U60C	0.39
A3G U31C U51G	0.94
A3G U41A A45G A56C A64U	0.22
A3G U41A A47G	0.59
A3G U41A A47U A64G	0.45
A3G U41A A56G A64U	0.21
A3G U41A A64G U72C	0.47
A3G U41A U43A U76A	0.23
A3G U41A U48C	0.23
A3G U41A U49A	0.49

Variant	self-cleavage
A3G U41A U51A G63U	0.17
A3G U41A U60A A77G	0.04
A3G U41A U76A	0.3
A3G U41C A45G A65G U74A	0.48
A3G U41C A45U U49C U51C	0.48
A3G U41C A57G G73A	1.21
A3G U41C A64U U80C	0.25
A3G U41C C44A U48A U54C C68G	0.25
A3G U41C U43A A64G U69C	0.31
A3G U41C U49C A57G U66C	0.19
A3G U41C U51C G63A U67C	0.42
A3G U41C U51G A56U	0.58
A3G U41C U67C U69A	0.37
A3G U41C U69C	0.61
A3G U43A A45G U49C	0.11
A3G U43A A45U A47C A75G	0.08
A3G U43A U49A U80C	0.73
A3G U43A U72A A77U	0.9
A3G U43C A47G U72A	0.5
A3G U43C A56G	0.45
A3G U43C U51C A57U	0.28

Variant	self-cleavage
A3G U43C U60A	0.39
A3G U43C U60C U67A	0.21
A3G U43C U74A	1.02
A3G U43G A47G U58A U60A A65G G70A	0.01
A3G U43G U58C	0.1
A3G U48C C59A U78C	0.07
A3G U48C G55A U58C	0.22
A3G U48C U54C A57G U60A	0.94
A3G U48C U60G	0.47
A3G U48C U67C	0.23
A3G U49A U54C	0.67
A3G U49C U54A A57G	0.5
A3G U51A A56G U58C	0.19
A3G U51A A57G U69C	0.15
A3G U51A A65G	0.43
A3G U51A U54A A56G U60G	0.41
A3G U51A U80C	1.11
A3G U51C G52U	1.27
A3G U51C U58C U76C	0.24
A3G U51C U69C	0.64
A3G U54A G70C A77G	0.33

Variant	self-cleavage
A3G U54A U58C U66C	0.24
A3G U54C A65U U72C	0.26
A3G U54C U60A A64U U74A	0.31
A3G U54C U80C	1.1
A3G U58G U67A U69C	0.25
A3G U58G U67C	0.34
A3G U60A C68U	0.44
A3G U60C A64U	0.16
A3G U60C G61A	0.42
A3G U60C U74G	0.8
A3G U60C U78G	0.82
A3G U66C C81A	0.68
A3G U66C U72C	0.57
A3G U66C U74C	0.5
A3G U66G U78C	0.39
A3G U67A C81A	0.64
A3G U67C U69C	0.51
A3G U67C U78C	0.37
A3G U72C U78A	1.18
A3G U72C U80A	1.23
A3G U72C U80C	1.27
